In all, about 81,000 sequences were measured (“one-hybrid fitness for binding parS DNA”: median about -0.17, highest 2% from about 0.51 on). The list shows a part of the results.
B1: Caulobacter ParB omega fusion; a variant is named by its letters at X, in order, B8GW30 (parent)
chain: MESVVVGEPGMSEGRRGLGRGLSALLGEVDAAPAQAPGEQLGGSREAPIEILQRNPDQPRRTFREEDLEDLSNSIREKGVLQPILVRPSPDTAGEYQIVAGERAWRAAQRAGLKTVPIMVRELDDLAVLEIGIIENVQRADLNVLEEALSYKVLMEKFERTQENIAQTIGKSXSHVANXMRLLXLPDEVQSYLVSGELTAXHARAIAAAADPVALAKQIIEGGLSVRETEALARKAPNLSAGKSKGGRPPRVKDTDTQALESDLSSVLGLDVSIDHRGSTGTLTITYATLEQLDDLCNRLTRGI

Variants of: B1
Assay: one-hybrid fitness for binding parS DNA (scaled: cognate 1, non-cognate 0); higher = stronger binding
Settings: with parS DNA site
Procedure, shortened: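 Fitness is the rescaled log change in variant-to-wild-type read ratio, measured by Illumina sequencing of plasmids before and after bacterial one-hybrid selection. The scale puts cognate at 1 and non-cognate at 0. Selection of Caulobacter ParB libraries, four specificity codons randomised, took place in E. coli USO with a HIS3 reporter, site 19 bp from the promoter, over 48 hours at 37°C on M9-minus-histidine with 0.1 mM IPTG and 5 mM 3-AT.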

| Variant | one-hybrid fitness for binding parS DNA |
| --- | --- |
| ADQP | ≤ 0.2 |
| WGGL | ≤ 0.2 |
| KSPR | ≤ 0.2 |
| RKCF | ≤ 0.2 |
| DVLV | ≤ 0.2 |
| IIRA | ≤ 0.2 |
| YWPF | ≤ 0.2 |
| YMMC | ≤ 0.2 |
| TGQY | ≤ 0.2 |
| ICIS | ≤ 0.2 |
| KVSS | ≤ 0.2 |
| NNTM | ≤ 0.2 |
| HDLK | ≤ 0.2 |
| WQVL | ≤ 0.2 |
| LPLI | ≤ 0.2 |
| VDST | ≤ 0.2 |
| MAIW | ≤ 0.2 |
| QSYL | ≤ 0.2 |
| PTLT | ≤ 0.2 |
| IYPL | ≤ 0.2 |
| SKNQ | ≤ 0.2 |
| VEVP | ≤ 0.2 |
| SFEM | ≤ 0.2 |
| RAEK | ≤ 0.2 |
| MCEG | ≤ 0.2 |
| TCYE | ≤ 0.2 |

| Variant | one-hybrid fitness for binding parS DNA |
| --- | --- |
| KELQ | 0.213 |
| HNLK | ≤ 0.2 |
| RLCH | 0.22 |
| DSPC | ≤ 0.2 |
| MAKK | ≤ 0.2 |
| RFTE | ≤ 0.2 |
| KAQT | ≤ 0.2 |
| IGVC | ≤ 0.2 |
| AING | ≤ 0.2 |
| RNPP | ≤ 0.2 |
| KKGA | ≤ 0.2 |
| MLSE | ≤ 0.2 |
| ETMC | ≤ 0.2 |
| WPVS | ≤ 0.2 |
| DIET | ≤ 0.2 |
| LQTR | ≤ 0.2 |
| FSFS | ≤ 0.2 |
| KKKN | ≤ 0.2 |
| TLHK | ≤ 0.2 |
| RWSC | 0.788 |
| QITG | ≤ 0.2 |
| YYIC | ≤ 0.2 |
| KLPL | ≤ 0.2 |
| MAMW | ≤ 0.2 |
| IRLT | ≤ 0.2 |
| SMHC | ≤ 0.2 |

| Variant | one-hybrid fitness for binding parS DNA |
| --- | --- |
| YALH | ≤ 0.2 |
| DDDT | ≤ 0.2 |
| RYNN | 0.364 |
| SMAT | ≤ 0.2 |
| NVCN | ≤ 0.2 |
| ATMM | ≤ 0.2 |
| MLVV | ≤ 0.2 |
| RTVT | 0.879 |
| LNTD | ≤ 0.2 |
| PYPE | ≤ 0.2 |
| QHND | ≤ 0.2 |
| TWTA | ≤ 0.2 |
| QLPV | ≤ 0.2 |
| TMLL | ≤ 0.2 |
| HFKR | ≤ 0.2 |
| SSLR | ≤ 0.2 |
| VLGV | ≤ 0.2 |
| NHDV | ≤ 0.2 |
| CCQC | ≤ 0.2 |
| RTKC | 0.813 |
| HVQV | ≤ 0.2 |
| RCTV | ≤ 0.2 |
| DRMV | ≤ 0.2 |
| QQMQ | ≤ 0.2 |
| IHYS | ≤ 0.2 |
| RCLA | 0.609 |

| Variant | one-hybrid fitness for binding parS DNA |
| --- | --- |
| MKRL | ≤ 0.2 |
| SPYT | ≤ 0.2 |
| TTVK | ≤ 0.2 |
| PSMI | ≤ 0.2 |
| YRQR | ≤ 0.2 |
| EEKY | ≤ 0.2 |
| RGNC | 0.716 |
| MTCY | ≤ 0.2 |
| ISIY | ≤ 0.2 |
| ADKW | ≤ 0.2 |
| SQGT | ≤ 0.2 |
| SRSH | ≤ 0.2 |
| QVMI | ≤ 0.2 |
| LWFV | ≤ 0.2 |
| ASNA | ≤ 0.2 |
| HACW | ≤ 0.2 |
| PEYS | ≤ 0.2 |
| YHTA | ≤ 0.2 |
| YHPS | ≤ 0.2 |
| RIDL | ≤ 0.2 |
| HCDR | ≤ 0.2 |
| PLSQ | ≤ 0.2 |
| LVKR | ≤ 0.2 |
| VRWW | ≤ 0.2 |
| AFVK | ≤ 0.2 |
| PVWM | ≤ 0.2 |

| Variant | one-hybrid fitness for binding parS DNA |
| --- | --- |
| VVKE | ≤ 0.2 |
| VHHT | ≤ 0.2 |
| CSNV | ≤ 0.2 |
| CLHY | ≤ 0.2 |
| QDMC | ≤ 0.2 |
| ATPD | ≤ 0.2 |
| KVLG | ≤ 0.2 |
| YPKL | ≤ 0.2 |
| YFRT | ≤ 0.2 |
| GSGR | ≤ 0.2 |
| VFDW | ≤ 0.2 |
| DQRE | ≤ 0.2 |
| GNKC | ≤ 0.2 |
| HRYN | ≤ 0.2 |
| DTPN | ≤ 0.2 |
| CNLC | ≤ 0.2 |
| HLLA | ≤ 0.2 |
| QRLY | ≤ 0.2 |
| RPKT | ≤ 0.2 |
| PPRP | ≤ 0.2 |
| ASLR | ≤ 0.2 |
| MNSR | ≤ 0.2 |
| GTRL | ≤ 0.2 |
| KGLR | ≤ 0.2 |
| YNQY | ≤ 0.2 |
| EKAF | ≤ 0.2 |

| Variant | one-hybrid fitness for binding parS DNA |
| --- | --- |
| IYTL | ≤ 0.2 |
| DLWV | ≤ 0.2 |
| TRPI | ≤ 0.2 |
| VVLA | ≤ 0.2 |
| EQAC | ≤ 0.2 |
| DCKS | ≤ 0.2 |
| SPMG | ≤ 0.2 |
| YRQY | ≤ 0.2 |
| QIAA | ≤ 0.2 |
| YHQA | ≤ 0.2 |
| LTYV | ≤ 0.2 |
| LRRG | ≤ 0.2 |
| KVVR | ≤ 0.2 |
| PDMM | ≤ 0.2 |
| PCMQ | 0.408 |
| KEHW | ≤ 0.2 |
| EILR | ≤ 0.2 |
| VKIT | ≤ 0.2 |
| TPCF | ≤ 0.2 |
| CYAG | ≤ 0.2 |
| RMLS | 1.04 |
| QRQK | ≤ 0.2 |
| GYWN | ≤ 0.2 |
